Screen size: about 150,000 compounds; about 540 (0.36%) showed an effect of 50% or more. The list shows a part of the results.
The compounds below were run on Plasmodium falciparum (assay: Primary screen in NF54 nanoGlo assay, in single point, at 2uM, 72h; a lower Z score goes with more inhibition). Details: timepoint 72 hour.
Type: functional, Erythrocyte
For `Cc1noc(NC(=O)N2CCC=C(F)C2)n1`, the “% Inhibition” value was 0% and the Z score was 0.02. With `O=C(CC[C@@H]1NC(=O)N(Cc2ccc3c(c2)OCO3)C1=O)N1CCOCC1` the “% Inhibition” value was -15% and the Z score was 2.13. In the case of `CCCNC(=O)Cn1ccc(=O)[nH]c1=O`, the “% Inhibition” value is reported as -21% and the Z score is reported as 1.94. With `NS(=O)(=O)c1cnc(NCCNc2cccc3ccccc23)s1` the “% Inhibition” value was 0% and the Z score was 0.01. `CC(C)(C)c1ccn(C2(C(=O)O)CCN(C(=O)c3cncc(Cl)c3)CC2)n1` was tested, and the “% Inhibition” value was 13% and the Z score was -1.74. In the case of `CN(C)c1ccnc(CNC(=O)N[C@H]2CC23CCOCC3)c1`, the “% Inhibition” value is reported as -2% and the Z score is reported as 0.43. For `CN(C(=O)c1cccc(-c2ccoc2)c1)C1CCCC1S(C)(=O)=O` (stereo not drawn), the “% Inhibition” value was 2% and the Z score was -0.24. In the case of `CCN(C)C(=O)c1ccc(N2C[C@@H]3[C@H]4CC[C@H](CC4)[C@@H]3C2)nc1`, the “% Inhibition” value is reported as 10% and the Z score is reported as -1.22. `COc1ccccc1CN1CC[C@H](c2nnc(Cc3ccccc3)o2)C1` was tested, and the “% Inhibition” value was -11% and the Z score was 1.42. In the case of `Cc1cc(O)cc(=O)n1CCc1c[nH]c2ccc(F)cc12`, the “% Inhibition” value is reported as -6% and the Z score is reported as 0.73. With `CCCC[C@H](NCc1nnc2n1CCCC2)C(=O)Nc1cc(C)on1` the “% Inhibition” value was -8% and the Z score was 1.4. With `Cc1cnn(CC(=O)NC[C@H](O)COc2ccc(F)cc2)c1` the “% Inhibition” value was 27% and the Z score was -3.03. In the case of `CS(=O)(=O)NC1CCCC1CNC(=O)[C@H](O)c1ccccc1` (stereo partly drawn), the “% Inhibition” value is reported as -17% and the Z score is reported as 2.26. For `O=C1Cc2cc(S(=O)(=O)N3CCC(C(=O)Nc4ccc5c(c4)OCO5)CC3)ccc2N1`, the “% Inhibition” value was -18% and the Z score was 2.76. In the case of `c1ccc2c(c1)OCC[C@@H]2Nc1ncnc2ccccc12`, the “% Inhibition” value is reported as 6% and the Z score is reported as -1.12. `O=C(Cc1nnc(-c2ccsc2)o1)Nc1ccc(OC(F)(F)F)cc1` was tested, and the “% Inhibition” value was 10% and the Z score was -0.99. In the case of `CCc1cc(-c2cn[nH]c2)nc(N(C)C)n1`, the “% Inhibition” value is reported as -14% and the Z score is reported as 1.78. With `Cc1cnc(CNC(=O)[C@@H]2CCO[C@H]2c2ccc(Cl)c(F)c2)o1` the “% Inhibition” value was -8% and the Z score was 0.95. In the case of `CCn1nc(C(=O)NC2(CC(=O)O)CCC2)c(=O)c2ccccc21`, the “% Inhibition” value is reported as -12% and the Z score is reported as 1.92. With `CC1CN(C(=O)c2ccc(N(C)C)nn2)CC(C)N1` (stereo not drawn) the “% Inhibition” value was 6% and the Z score was -0.81. `CC(C)O[C@H]1CN(c2nccc(C3CCCC3)n2)C[C@@H]1O` was tested, and the “% Inhibition” value was -10% and the Z score was 1.46. With `CCOC[C@@H](O)CN(Cc1c(-c2ccccc2)noc1N(CC)CC)CC1CC1` the “% Inhibition” value was 0% and the Z score was -0.06. In the case of `C[C@H]1CN(C(=O)CCCOc2ccccc2)C[C@]1(O)C1CC1`, the “% Inhibition” value is reported as 1% and the Z score is reported as -0.11. `CN1C[C@@H]2CC[C@H]1CN(C(=O)c1cccc(-c3ccc4c(c3)OCO4)c1)C2` was tested, and the “% Inhibition” value was -4% and the Z score was 0.63. `C[C@@H]1C[C@H](O)CN(C(=O)NC[C@@H]2C[C@H]2c2ccccc2)C1` was tested, and the “% Inhibition” value was -3% and the Z score was 0.38. For `CC(C)CN(C)C(=O)[C@H]1CCCN(C2CCN(C3Cc4ccccc4C3)CC2)C1`, the “% Inhibition” value was -10% and the Z score was 0.97. In the case of `COc1ccc(N2C[C@@]34C=C[C@@H](O3)C(C(=O)NCc3ccccc3)[C@H]4C2=O)cc1` (stereo partly drawn), the “% Inhibition” value is reported as 3% and the Z score is reported as -0.51. `O=C1COC(=O)N1CC1CN(S(=O)(=O)c2ccc3c(c2)CCO3)C1` was tested, and the “% Inhibition” value was 4% and the Z score was -0.59. With `O=C(Nc1cccc2c1OCCC2)N1CCC[C@H](OC2CCC2)C1` the “% Inhibition” value was 2% and the Z score was -0.29. In the case of `O=S(=O)(c1cccc2nsnc12)N1CCC2(CC1)CC2(F)F`, the “% Inhibition” value is reported as 20% and the Z score is reported as -2.56. For `Cc1ccc2nc(NC(=O)N(C)C[C@H](C)c3nccs3)sc2n1`, the “% Inhibition” value was -20% and the Z score was 2.23. With `CC(=O)N1CCN(CC(=O)c2cc(C)n(-c3cc(C)on3)c2C)CC1` the “% Inhibition” value was -4% and the Z score was 0.5. With `Cc1ccc2[nH]c(CCC(=O)N3CCC(C(=O)N4CCCC4)CC3)nc2c1C` the “% Inhibition” value was -1% and the Z score was 0.17. With `COCCCn1ccc(NCc2cccnc2)n1` the “% Inhibition” value was -6% and the Z score was 0.83. In the case of `CC(C)N(C)c1ccccc1CNC(=O)NCc1cccnc1`, the “% Inhibition” value is reported as 3% and the Z score is reported as -0.45. With `CN(C)c1ccc(CN2CCC(Oc3ccc(Cl)cc3)(C(=O)O)CC2)cn1` the “% Inhibition” value was -5% and the Z score was 0.5. `COc1cc2c(cc1OC)CN(C1CCN(C(=O)[C@@H](C)Cn3cccn3)CC1)CC2` was tested, and the “% Inhibition” value was -9% and the Z score was 1.45. `CN(C)c1ncc(CN2C[C@H]3CCC[C@@H](C2)N(C)C3)s1` was tested, and the “% Inhibition” value was -2% and the Z score was 0.37. In the case of `Cc1ccnn1CCc1ncnn1CC(C)(C)O`, the “% Inhibition” value is reported as -1% and the Z score is reported as 0.16. For `O=C(N[C@@H]1CN(C(=O)c2ccco2)C[C@H]1CO)c1ccccc1`, the “% Inhibition” value was -12% and the Z score was 1.98. With `COc1ccccc1NC(=O)Cn1nc2c(N3CCOCC3)nc3ccccc3n2c1=O` the “% Inhibition” value was -8% and the Z score was 1.1. In the case of `CN(C)S(=O)(=O)N(CC#N)CC1CCC(c2ccccc2)CC1` (stereo not drawn), the “% Inhibition” value is reported as 7% and the Z score is reported as -1.1. For `CCCN1CCN(C(=O)c2ccnn2C)[C@H]2CS(=O)(=O)C[C@H]21`, the “% Inhibition” value was -11% and the Z score was 1.42. For `COc1ccc(CCC(=O)N2CCC[C@H]2c2nc3ccccc3[nH]2)cc1`, the “% Inhibition” value was 5% and the Z score was -0.95. `Cc1ccc(CN2CC(c3nc(CCN(C)C(=O)C4CCOCC4)no3)C2)s1` was tested, and the “% Inhibition” value was -2% and the Z score was 0.37. `CC(C)C(C#N)NC(=O)[C@H]1Cc2ccccc2O[C@@H]1C(F)(F)F` (stereo partly drawn) was tested, and the “% Inhibition” value was -10% and the Z score was 1.38. `CCn1cc(CN(C)c2cc(N3CCCC3)nc(N)n2)c(C)n1` was tested, and the “% Inhibition” value was 6% and the Z score was -0.92. In the case of `Cc1ccc(NC(=O)c2ccc(N3CCCN(Cc4ccccc4)C3=O)cc2)cc1`, the “% Inhibition” value is reported as 7% and the Z score is reported as -0.84. `Cc1ccc(-c2nc(CNC(=O)Nc3ccc(Cl)cc3)c(C)o2)cc1` was tested, and the “% Inhibition” value was -8% and the Z score was 1.09. `CC1CC2CCCCC2N1S(=O)(=O)C1CCOCC1` (stereo not drawn) was tested, and the “% Inhibition” value was -9% and the Z score was 1.17. With `Cc1ccc(C2=NOC3(CCN(C(=O)c4ccncc4)CC3)N2)cc1` the “% Inhibition” value was -14% and the Z score was 2.21. With `CCCC[C@@H](CC(=O)O)NC(=O)c1c(F)cccc1OC` the “% Inhibition” value was -6% and the Z score was 0.71. In the case of `CCOC(=O)c1cccnc1-c1cccc(-c2ccn(CCO)n2)c1`, the “% Inhibition” value is reported as -6% and the Z score is reported as 0.91. For `CC(C)(CC(=O)NC1CC[S+]([O-])C1)CC(=O)c1ccccc1` (stereo not drawn), the “% Inhibition” value was 1% and the Z score was -0.07. With `c1ccc(Cc2cc(C3CCN(Cc4c[nH]cn4)CC3)[nH]n2)cc1` the “% Inhibition” value was -2% and the Z score was 0.27. With `CCc1cc(N2CCC(NCc3cc(C)nn3C)CC2)nc(N(C)C)n1` the “% Inhibition” value was 6% and the Z score was -1.08. In the case of `COc1ccc(OC)c(-c2csc(Cc3nccn3Cc3ccccc3)n2)c1`, the “% Inhibition” value is reported as 15% and the Z score is reported as -2.01. For `CCCc1ncc(C(=O)NC[C@H](O)c2ccco2)s1`, the “% Inhibition” value was -11% and the Z score was 2.05. `O=c1c2cnc(N3CCc4ccccc4C3)nc2ccn1-c1ccccc1F` was tested, and the “% Inhibition” value was -6% and the Z score was 0.99. In the case of `O=C(CCc1ccc(Cl)s1)NCC1CCCC1O` (stereo not drawn), the “% Inhibition” value is reported as -9% and the Z score is reported as 1.16. With `CCNc1ncnc2sc(C(=O)N3CCCC[C@@H]3CC)c(C)c12` the “% Inhibition” value was 6% and the Z score was -0.87. With `C[C@H](NCc1ncn(C)n1)c1ccc(OC(C)(C)C)cc1` the “% Inhibition” value was -1% and the Z score was 0.1. With `Cc1ccc(CCNC(=O)N2CCOC[C@@H]2CC2CCOCC2)o1` the “% Inhibition” value was 12% and the Z score was -2.25. `CCC[C@](C)(N)C(=O)Nc1cncc(Br)c1O` was tested, and the “% Inhibition” value was -20% and the Z score was 2.64. `CN(c1cccc(O)c1)S(=O)(=O)c1ccc2c(c1)OCCCO2` was tested, and the “% Inhibition” value was -13% and the Z score was 2.57. With `CCc1ccc(CNC(=O)[C@@H]2CCCO2)s1` the “% Inhibition” value was -17% and the Z score was 1.9. For `C[C@@H](C1CCN(C(=O)c2ccc(OC(F)F)cc2)CC1)N1CCN(C)CC1`, the “% Inhibition” value was -12% and the Z score was 1.49. With `NC(N)=Nc1nc(-c2ccc(N3CCCC3=O)cc2)cs1` the “% Inhibition” value was 0% and the Z score was 0.03. For `C#CCNC(=O)CNS(=O)(=O)c1ccc(Br)cc1C`, the “% Inhibition” value was -4% and the Z score was 0.49. With `O=C(NCCCOC[C@H]1CCCO1)NCc1noc(-c2cccc(Br)c2)n1` the “% Inhibition” value was -7% and the Z score was 1.21. In the case of `CCc1nsc(NCCNC(=O)c2cccc(C)c2)n1`, the “% Inhibition” value is reported as 0% and the Z score is reported as -0.01. With `COc1ccc(CN2CC[C@]3(CO)CN(Cc4ccccc4)C[C@@H]3C2)c(Cl)c1OC` the “% Inhibition” value was 6% and the Z score was -1.14. `COc1ccc(CCC(=O)N2C[C@@H]3CN(C(=O)C(C)C)C[C@]3(C(=O)N3CCCC3)C2)cc1` was tested, and the “% Inhibition” value was -18% and the Z score was 2.42. With `CN(C)C[C@H](O)c1cc2n(n1)CCCN(C(=O)c1cc(Cl)ccc1F)C2` the “% Inhibition” value was -12% and the Z score was 1.55. `C=CCn1cc(CNC[C@H](O)c2ccccc2Cl)c(C)n1` was tested, and the “% Inhibition” value was -9% and the Z score was 0.98. For `Nc1ccc(OCc2cc(C(F)(F)F)cc(C(F)(F)F)c2)nc1`, the “% Inhibition” value was -11% and the Z score was 1.48. `CCN(Cc1nc(-c2cnoc2C)cs1)C(=O)OC(C)(C)C` was tested, and the “% Inhibition” value was -6% and the Z score was 1.22. In the case of `COc1ccc(C2OC(COc3ccccc3)CN(C(=O)c3ccccc3)O2)cc1OC` (stereo not drawn), the “% Inhibition” value is reported as -3% and the Z score is reported as 0.36. In the case of `Cc1cc(C(=O)Nc2nc(C(=O)N3CCN(c4ccccc4O)CC3)co2)no1`, the “% Inhibition” value is reported as 0% and the Z score is reported as -0.01. `CC[C@]1(O)CCN(C(=O)Cc2cc3c(cc2Cl)OCCO3)C[C@@H]1O` was tested, and the “% Inhibition” value was 4% and the Z score was -0.74. In the case of `CC1CN(CC2CCCCO2)CC(C)O1` (stereo not drawn), the “% Inhibition” value is reported as -11% and the Z score is reported as 0.95. `CCN1C[C@@H](c2ccccc2)CC2(CCN(S(C)(=O)=O)CC2)C1` was tested, and the “% Inhibition” value was -7% and the Z score was 0.93. `CCCn1cc(CN2CCn3nc(CNc4ncccn4)cc3C2)c(C)n1` was tested, and the “% Inhibition” value was -8% and the Z score was 1.27. In the case of `C[C@@H](c1nc(CC(N)=O)nn1-c1ccc(Cl)cc1)N1CCCC1`, the “% Inhibition” value is reported as -17% and the Z score is reported as 1.96.

From ChEMBL document CHEMBL4888484, “Replenishing the malaria drug discovery pipeline: Screening and hit evaluation of the MMV Hit Generation Library 1 (HGL1) against asexual blood stage Plasmodium falciparum ,using a nano luciferase reporter read-out” (2022)
